# Measured values taken from PubChem BioAssay AID1347073 (National Center for Advancing Translational Sciences (NCATS), 2019).
# Screen size: about 45,000 compounds; about 200 (0.44%) were called active. Not shown: some 7% with an inconclusive outcome. Calls come from the whole dose curve; as a rule, active = well fitted activation curve with a large enough effect; inconclusive = small, poorly fitted or top-dose-only effect; inactive = no such curve, though single readings can be large or run the other way. This is one part of the list.
# Assay: qHTS of TDP-43 Inhibitors: NCGC Sytravon Library Screen; note: nearly all actives have a fitted effect of over 55% in size; for growth rescue (activation): 0% is about no effect
# Settings: yeast TDP-43 toxicity rescue, BacTiter-Glo growth, 24 h; series mostly up to 46.1 µM; growth rescue (activation): at the top concentration
# Summary of the method: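 TDP-43-expressing yeast, pregrown in raffinose, seeded at OD600 0.02 in galactose medium with compound for 24 hr at 30 deg C. Growth read by BacTiter-Glo luminescence, so rescue of toxicity appears as activation.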
# Potency is the fitted concentration of half-maximal effect.
Structure (SMILES),growth rescue (activation),Potency
NC(=O)c1ccccc1OCc1nnc(-c2ccccc2Br)o1,inactive: -4.87%,
CCN(CC)CCNc1ncnc2c1sc1nc(N3CCOCC3)c3c(c12)CCCC3,inactive: 18.2%,
Cc1ccc(NC(=O)Cc2n[nH]c(=S)n2C)cc1,inactive: 3.61%,
COc1cc(C2c3[nH]c4ccccc4c3CCN2Cc2cn(C)nc2C)ccc1F (centres undefined),inactive: 0.758%,
Cc1ncc(CO)c(/C=N/NC(=S)Nc2ccc(F)cc2)c1O,inactive: 19.6%,
COc1ccc(Nc2ccc(N3C(=O)CCCC3=O)cc2[N+](=O)[O-])c(OC)c1,inactive: 9.51%,
CCN(CC)c1ccc2c(c1)OC(N)=C(C#N)C2c1cccnc1 (centres undefined),inactive: 23.5%,
CC(C)(C)c1ccc(C(=O)NC(=S)Nc2nc3c(s2)CCCC3)cc1,inactive: -14%,
O=C(COC(=O)c1ccco1)NC12CC3CC(CC(C3)C1)C2,inactive: 4.55%,
C=CCN1C(=O)C(CC(=O)Nc2ccccc2F)S/C1=N\c1nccs1 (centres undefined),inactive: -9.87%,
CC(OC(=O)c1ccc([N+](=O)[O-])o1)C(=O)Nc1nc(-c2ccc(F)c(F)c2)cs1 (centres undefined),inactive: -92.6%,
CCN1CCN(S(=O)(=O)c2ccc(C)c([N+](=O)[O-])c2)CC1,inactive: 6.79%,
Cc1ccc(OCCSc2nc3ccccc3n2CCC(=O)O)cc1C,inactive: 1.07%,
COc1cc(/C=N/Nc2cc(C)nc(NS(=O)(=O)c3ccc(C)cc3)n2)ccc1O,inactive: 3.31%,
COCCC(=O)N1CCC(Oc2ccc(C(=O)NCCc3ccccn3)cc2)CC1,inactive: -17.7%,
CCCCNC(=O)C1(C)CCN1C(=O)c1ccc(OC)c(C(F)(F)F)c1 (centres undefined),inactive: 16.7%,
CCCNC(=O)Nc1ccsc1C(=O)OC,inactive: 5.92%,
Cc1nnc(SCC(=O)N2c3ccccc3CC2C)[nH]c1=O (centres undefined),inactive: 10%,
O=C(Cc1c(F)cccc1Cl)OCC(=O)c1ccc[nH]1,inactive: 11.6%,
Cc1cccc(/C=N/NC(=O)Cc2cccs2)c1,inactive: 20.5%,
CC(C)c1nnc(SCC(=O)NC(C)(C)C)n1C,inactive: -7.76%,
COC(=O)COc1ccc(/C=N/NC(=O)CN(c2ccccc2OC)S(=O)(=O)c2ccccc2)cc1,inactive: 4.33%,
COc1ccc(-c2cc(C(=O)Oc3ccc(Cl)cc3)c3ccccc3n2)cc1,inactive: -5.56%,

Structure (SMILES),growth rescue (activation),Potency
Cc1cccc(C(C)C)c1NC(=O)CSc1cccc[n+]1[O-],inactive: -2.56%,
CC(=O)OCCCCON1C(=O)c2ccccc2C1=O,inactive: 19.4%,
COc1ccc(-c2[nH]ncc2CN(C)CCCN2CCOCC2)cc1F,inactive: -17.5%,
COc1ccc(-c2csc(C3=C(O)CN(C(C)C)C3=N)n2)cc1OC,inactive: -14.6%,
CN(C(=O)CSc1nc2ccccc2c(=O)n1-c1ccc(F)cc1F)C1CCS(=O)(=O)C1 (centres undefined),inactive: 33.2%,
COc1ccccc1-c1nnc(SC/C(O)=C(\C#N)c2nc3ccccc3[nH]2)n1C1CCCCC1,inactive: 6.13%,
O=S(=O)(Nc1ccc(Br)cn1)c1cccs1,inactive: 14.7%,
Cc1cc(Nc2cccc(F)c2)nc(NCc2ccccc2)n1,inactive: 8.83%,
CCOc1ccc(NCc2cccn2-c2nnc(N3CCC(C(=O)NC(C)c4ccccc4)CC3)s2)cc1 (centres undefined),inactive: 5.35%,
CN(C)c1ccc(P(=O)(OCc2ccccc2)C(O)c2ccccc2F)cc1 (centres undefined),inactive: 6.43%,
CC(=O)c1ccc(NC(=S)N2CCC(O)CC2)cc1,inactive: 11.6%,
COc1ccc(S(=O)(=O)N2CC(C)N(C(=O)N(C)C)C2C)cc1 (centres undefined),inactive: 14.8%,
COc1ccc(CCNC(=O)CSCc2ccc([N+](=O)[O-])cc2)cc1OC,inactive: -1.66%,
Cc1ccc(NC(=O)CN(C)S(=O)(=O)c2cnc[nH]2)cc1C,inactive: -1.68%,
CCCCN(C(=O)Cc1cccc(F)c1)c1c(N)n(CCC)c(=O)[nH]c1=O,inactive: 11.3%,
O=C(c1nc2ccc(Cl)cn2c1CNCC[C@@H]1C[C@@H]2C=C[C@H]1C2)N1CCCCCCC1,inactive: 11%,
COc1ccc(N2C(=NC(=O)c3ccccc3)SC3CS(=O)(=O)CC32)cc1 (centres undefined),inactive: -16.4%,
Cc1cc(C)nc(NC(=O)c2csnn2)c1,inactive: 3.47%,
CN1CCS/C1=C\C=C1/SC(=S)N(CC(=O)O)C1=O,inactive: -4.57%,
CCCCN(CCCC)Cc1ccc(C(=O)NNC(=O)Nc2ccc(F)cc2)o1,inactive: 1.76%,
COc1ccc(C(O)c2ncc(-c3cccc(OC)c3)[nH]2)cc1 (centres undefined),inactive: 11.7%,
Fc1ccccc1NC(=S)N1CCN(Cc2ccccc2)CC1,inactive: 4.66%,
CCOC(=O)N1CCN(C(=S)NC(=O)c2cccc(OC)c2)CC1,inactive: -20.1%,

Structure (SMILES),growth rescue (activation),Potency
COC(=O)c1ccc(CN2CCC(n3nccc3NC(=O)C3CCCC3)CC2)cc1,inactive: 8.67%,
CC(=O)c1cccc(OCC(O)CNCC2COc3ccccc3O2)c1 (centres undefined),inactive: 9.66%,
CCc1nc2ccc(C(=O)N(C)Cc3ccco3)cn2c1N(CC)C(=O)NCCc1ccccc1,inactive: 0.0917%,
COc1ccc2oc(=O)c(C(=O)Nc3cccc(C)c3)cc2c1,inactive: -0.459%,
Cc1cnc(C(=O)OCc2cc(=O)n3c(C)cccc3n2)cn1,inactive: 6.53%,
COC(=O)c1nc2nc(C)cc(=O)n2[nH]1,inactive: 18.2%,
CC1CN(c2ccc([N+](=O)[O-])cc2C#N)CC(C)O1 (centres undefined),inactive: -1.46%,
COc1ccc(CN2CCNC(=O)C2CC(=O)NCc2cccc(C)n2)c(OC)c1 (centres undefined),inactive: -5.45%,
O=C(N1CCCC1)C(F)(F)Oc1ccc(F)cc1,inactive: 13.7%,
CCCNC(=O)c1ccc(C)c(NC(=O)C2=C(C)OCCS2)c1,inactive: 3.52%,
O=C(NCCCN1CCOCC1)/C(=C/c1ccco1)NC(=O)c1ccccc1,inactive: -2.21%,
Cc1ccc(NC(=O)COC(=O)C2C3CC4OC(=O)C2C4C3)cc1Cl (centres undefined),inactive: 6.86%,
O=C(CC(=O)c1ccccc1)Nc1cccnc1,inactive: 1.36%,
O=C(OCc1ccc(F)cc1)c1ccc2c(c1)-c1ccccc1C2=O,inactive: 13.6%,
COc1ccc(C=C2C=C(C(C)(C)C)C(=O)C(C(C)(C)C)=C2)cc1OC,inactive: 11.3%,
O=C(CN1C(=O)c2ccccc2S1(=O)=O)N1CCCCC1,inactive: -19%,
CCN1CCN(C(=S)NC(C)c2ccccc2)CC1 (centres undefined),inactive: 5.65%,
CCC(=O)N1CCc2cc(Br)cc(S(=O)(=O)N3CCCC(C(=O)NC(C)(C)C)C3)c21 (centres undefined),inactive: 10.1%,
NC(=S)N/N=C/c1ccc(-c2ccc(Cl)c(Cl)c2)o1,,active: 11.2 µM
Cc1[nH]nc2c1C(c1ccc(N(C)C)cc1)C1=C(CC(C)(C)CC1=O)N2 (centres undefined),inactive: 0.422%,
O=C(CSc1ccc([N+](=O)[O-])cn1)Nc1ccc2[nH]c(=O)[nH]c2c1,inactive: 10.2%,
Cc1nc2nc[nH]n2c(=O)c1NS(=O)(=O)c1ccc(C(C)(C)C)cc1,inactive: -16.3%,
NC(=O)c1cc(S(=O)(=O)Nc2cccc(Cl)c2)cs1,inactive: 3.2%,
